Measurements as given in paper PMC6602471.
Some of the results follow. At the low end of the ranking the order means little.

What follows are sequences tested against T1, ELK1 (UniProt P19419) (assay: custom PBM). Conditions: custom protein-binding microarray; buffer, salt, pH and temperature not stated; high values mean tight binding; double strand, one strand shown.
T1 sequence: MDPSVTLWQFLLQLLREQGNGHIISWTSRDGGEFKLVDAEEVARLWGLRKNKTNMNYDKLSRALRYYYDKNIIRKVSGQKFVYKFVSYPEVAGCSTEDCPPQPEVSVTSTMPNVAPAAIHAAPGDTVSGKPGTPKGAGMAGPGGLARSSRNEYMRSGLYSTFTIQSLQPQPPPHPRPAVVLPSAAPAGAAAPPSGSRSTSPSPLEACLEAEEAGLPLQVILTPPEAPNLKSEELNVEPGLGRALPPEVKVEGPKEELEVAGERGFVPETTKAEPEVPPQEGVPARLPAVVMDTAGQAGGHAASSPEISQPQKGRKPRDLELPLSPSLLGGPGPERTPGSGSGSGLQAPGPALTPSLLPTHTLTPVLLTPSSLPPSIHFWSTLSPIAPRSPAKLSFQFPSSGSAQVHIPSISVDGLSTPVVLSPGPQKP

Sequence	binding signal (log fluorescence intensity)
TACTGACTTATATATGCGAATGCACATGAATTGACCGTCTTGATTCGCTTGACGCTGCTG	8.9
TCCGGCTATCAGCTCCACCCACTTCAGGCCTTGTAGGTCTTGATTCGCTTGACGCTGCTG	9.1
CACAATTTTTACAGTAATGTAGCACGCGTAACCCCTGTCTTGATTCGCTTGACGCTGCTG	8.95
TGTCGGGTAAGGGAATGTAGATCACATGAATGAAAAGTCTTGATTCGCTTGACGCTGCTG	8.86
CTGGGACTTGACCCAACTCTGCCACGTGGGTCGCTTGTCTTGATTCGCTTGACGCTGCTG	8.88
TGTCGGGTAAGGGAATGTATATCACGTGAATGAAAAGTCTTGATTCGCTTGACGCTGCTG	8.72
CACAATTTTTATAGTAATGTAGCACGCGTAACTCCTGTCTTGATTCGCTTGACGCTGCTG	8.86
CTGGGACCTGACCCAACTCTGCCACGTGGGTCGTTTGTCTTGATTCGCTTGACGCTGCTG	8.72
GATTAATTTCTGCCCTTATTCGCAGGTGCCATAACAGTCTTGATTCGCTTGACGCTGCTG	8.99
GCTGCTGCGGTGCATACCCCACCGGATGTGACCCTGGTCTTGATTCGCTTGACGCTGCTG	10.1
TACTGACTTATATATGCGAATGCTCATGAATAGACCGTCTTGATTCGCTTGACGCTGCTG	8.85
GGAAAAAGGCACAGGGTAACACCGGAAGTGGGCTTAGTCTTGATTCGCTTGACGCTGCTG	11
GTGTATGGGATCCCATCCAACACACGTGTTAAAATGGTCTTGATTCGCTTGACGCTGCTG	9.12
CTGGGACTTGACCCAACTCTGCCACGTGGGACGTTTGTCTTGATTCGCTTGACGCTGCTG	8.84
CGGAAGTGTCGTAAACGTCGGATATCCGGTGCTTCTGTCTTGATTCGCTTGACGCTGCTG	12.5
TACTGACTTATATAGGCGAATGCACATGAATAGACCGTCTTGATTCGCTTGACGCTGCTG	8.82
TGTCGGGTAAGGGAATGTCGATCACGTGAATGAAAAGTCTTGATTCGCTTGACGCTGCTG	8.77
TCCGGCTACGAGCTCCACCCACTTCAGGCCTTGTAGGTCTTGATTCGCTTGACGCTGCTG	8.91
GCTGCTGCAGTGCATACCCCACCGGATGTGACCCCGGTCTTGATTCGCTTGACGCTGCTG	10.1
TAAAGGGAAGACGGTTGTGGTAGTTCCGGGAATTAAGTCTTGATTCGCTTGACGCTGCTG	11.2
CGGAAGTGTCGTAAAAGTCGGATATCCGGTTCTTCTGTCTTGATTCGCTTGACGCTGCTG	12.5
CAGAATAGGACTTCTTCCCTGAAGCAATTGATAACCGTCTTGATTCGCTTGACGCTGCTG	9.06
CTGGGAATTGACCCAACTCTGCCACGTGGGTCGTTTGTCTTGATTCGCTTGACGCTGCTG	9
CTGTATAGGATCCCATCCAACACACGTGTTAAAATGGTCTTGATTCGCTTGACGCTGCTG	8.9
GATTAATTTCTGCCCTTGTTCGCACGTGCCATAACAGTCTTGATTCGCTTGACGCTGCTG	9.06
CAGCATAGGACTTGTTCCCTGAAGCAATTGATAACCGTCTTGATTCGCTTGACGCTGCTG	8.97

Sequence	binding signal (log fluorescence intensity)
TCCGGCGACCAGCTCCACCCACTTCAGGCCTTGTAGGTCTTGATTCGCTTGACGCTGCTG	9.03
TCCGGCTACCACCTCCACCCACTTCAGGCCTTGTAGGTCTTGATTCGCTTGACGCTGCTG	8.92
GCTGCTGCGGTGCATACCCCACCGGAGGTGACCCCGGTCTTGATTCGCTTGACGCTGCTG	9.01
GTTTAATTTCTGCCCTTATTCGCACGTGCCATAACAGTCTTGATTCGCTTGACGCTGCTG	8.91
TGGAAGTGTCGTAAACGTCGGATATCCGGTTCTTCTGTCTTGATTCGCTTGACGCTGCTG	12.5
TCCGGCTACCAGCTCCACCCACTTCAGGCCTAGTAGGTCTTGATTCGCTTGACGCTGCTG	8.96
TATTAATTTCTGCCCTTATTCGCACGTGCCATAACAGTCTTGATTCGCTTGACGCTGCTG	8.91
TACTGACTTATATATGCGAATACACATGAATAGACCGTCTTGATTCGCTTGACGCTGCTG	8.85
TGTCGGGTAAGGGAATGTAGATCACGCGAATGAAAAGTCTTGATTCGCTTGACGCTGCTG	8.89
TGTCGGGTAAGGGACTGTAGATCACGTGAATGAAAAGTCTTGATTCGCTTGACGCTGCTG	8.79
GTGTATAGGATCCCATCCAACACACGTGTCAAAATGGTCTTGATTCGCTTGACGCTGCTG	8.93
GTGTAGAGGATCCCATCCAACACACGTGTTAAAATGGTCTTGATTCGCTTGACGCTGCTG	8.89
TAAAGGGAAGACGGTGGTGGTAGTTCCGGGTATTAAGTCTTGATTCGCTTGACGCTGCTG	11.1
CACAATTTTTACAGTAAAGTAGCACGCGTAACTCCTGTCTTGATTCGCTTGACGCTGCTG	8.77
TCCGGCTACCAGCTCCACCCACATCAGGCCTTGTAGGTCTTGATTCGCTTGACGCTGCTG	8.93
TAAAGGGAACACGGTTGTGGTAGTTCCGGGTATTAAGTCTTGATTCGCTTGACGCTGCTG	11.2
CTGGGACTTGACCCAACTCTGCCACGTGGGTCGTTCGTCTTGATTCGCTTGACGCTGCTG	8.99
CGGAAGTATCGTAAACGTCGGATATCCGGTTCTTCTGTCTTGATTCGCTTGACGCTGCTG	12
CAGCATAGGACTTCTTCCCTGAATCAATTGATAACCGTCTTGATTCGCTTGACGCTGCTG	8.76
GCTGCTGCGGTGCATACCCCTCCGGATGTGACCCCGGTCTTGATTCGCTTGACGCTGCTG	9.59
GTAAAAAGGCCCAGGGTAACACCGGAAGTGGGCTTAGTCTTGATTCGCTTGACGCTGCTG	10.9
GATTAATTTCTGCCCTAATTCGCACGTGCCATAACAGTCTTGATTCGCTTGACGCTGCTG	8.74
GATTAATTTCTGCCTTTATTCGCACGTGCCATAACAGTCTTGATTCGCTTGACGCTGCTG	8.9
GTGTATAGGATCCGATCCAACACACGTGTTAAAATGGTCTTGATTCGCTTGACGCTGCTG	9.83
TCCGGCTACCAGCTCCACCCAATTCAGGCCTTGTAGGTCTTGATTCGCTTGACGCTGCTG	8.93
GGAAAAAGGCCCAGGGTGACACCGGAAGTGGGCTTAGTCTTGATTCGCTTGACGCTGCTG	10.9
